The supplement of paper PMC10126150
Sequences with one replicate were seen in a single cluster, so their values are uncertain.

Test system: ATP
Assay: switch fluorescence ratio, 500 uM ATP over buffer (Cy3 cluster intensity, sum of 5 cycles each) (fold (ratio)); higher = stronger signal-on switching upon ATP binding; sequences stand for … in TCGTCGGCAGCGTCAGATGTGTATAAGAGACAGTTTTTTTTTTTTTTTTTTTTTTTTT…TC
Conditions: aptamer strand: ATP DNA aptamer (quencher-CACCTGGGGGAGTATTGCGGAGGAAGG + anchor), 100 nM annealed; ATP concentration: 500 uM; one replicate
Method in brief: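 After annealing to 100 nM quencher-labelled ATP aptamer, Cy3-labelled switching-strand clusters on a modified Illumina MiSeq flow-cell were imaged in selection buffer. A second image followed after 15 min with 500 uM ATP at 22 °C, and five such buffer/ATP cycles were done, each separated by NaOH stripping and re-annealing. The fluorescence ratio, averaged per switch-domain sequence, is summed target-cycle over summed buffer-cycle Cy3 intensity per cluster, with clusters outside 100-1000 RFU excluded.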
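Note: ATP exposure 15 min at 22 °C before imaging.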

Sequence	switch fluorescence ratio
TGACTTCAAT	1.01
ATTATATTCG	0.952
AACGTTTAGC	1
AACCAAGCGT	1.01
GTAATGGGAA	0.987
TTCGCATTAG	3.59
AAGAATAAGC	0.961
CTATAGGTTC	1.01
GAAATGACGT	1.04
GTGTTAAACG	1.06
AGATCTCTAC	0.957
TTGGGATTGA	1
GCGACCCGTC	1.01
CAGTGGCGAC	0.972
AAAATGGAAT	0.932
CGCCTTACGA	1.56
GTAAAATATT	0.994
GGTGGTGTAC	1.29
TATTTAATGC	1.07
AGAGTTTTAC	1.06
TATACAGGGA	1.02
TGACATGTAC	1.24
ACGCAGATGA	1.11
TGCCTTTGGG	1.02
CCAATGTTAG	1
ATTGCCTTTT	0.995

Sequence	switch fluorescence ratio
TTTAAGTCTT	0.979
CATGGAATCA	1
GGTTCTGTTC	1.03
GTCATCGCTG	0.993
TAGGGCGAGT	1.03
AACCGATCAG	1.09
GAATGCCGAA	1.01
ATTTATACTA	0.978
CCGTGGCATC	4.9
TGCCAATTGC	1.08
TGGAGTCCCG	0.966
AACGAGACTA	1.02
ATCTACCGT	1.01
TGAATACCAC	1
TATGCGCGT	1.03
TCTACCAAGT	1.3
CGGCGAACGA	1.06
CTAGCAGGGT	1
CTCAGTCTCT	1
TTGAGATAGG	1.01
TCTAATAAGA	1.04
TGGGGGCCTC	1.03
CGTTCTCTTG	1.01
TCATTGGGAG	1.05
TGGGACCCAG	0.989
CTTATCGCCT	1.07

Sequence	switch fluorescence ratio
CGGCGTGCGG	1
GGACGATCCC	1.08
GCCTGATGCT	1.11
GACAGTCAG	1.01
GAAAGAACAC	1.05
CTATGACGA	1.04
AGCACAAGGA	1
CTATACGTCC	1.05
AAGGAACATC	0.999
TGTGGTAATT	0.967
TACTTAATGA	1.03
AAAGGATAGG	0.962
GCGGGGAGG	0.985
ATTGTGGTT	0.959
CCTGGGGTAC	2.21
CCAACCATCT	1.03
GGATTCCAAC	0.989
GGCGGTTAGC	0.983
GGTTTGAGCC	0.924
AATAGTTGAC	0.958
CATCCTTTGC	1.22
CAATGGCACC	1.05
GGAAAGCTAC	1.35
TTACCGTGAT	1.19
GGTGAGTGCC	1.05
GAGAAACTTA	0.99

Sequence	switch fluorescence ratio
CCTGTGGTTT	1.01
TCGTTAATAT	1.12
AGCTTGGGGA	1.06
ACGTCATGTA	1.06
GTCAGAGTGC	1.03
TAAGTAGAAA	0.965
CAGGTATTTT	0.964
AAAAGAACCT	1.82
GTAATAGAGC	0.994
CCTGATTGA	0.962
TGCATTAAAG	1.02
GCCAGCGCAA	2.03
GAGCCCTAGA	0.999
ATCCTTGGGT	1.05
ACCGGGACGG	1.03
CCACCCTGGA	1.06
TAAAGGTAGC	1.03
CGGGGTTAGT	0.978
GTTATCAATG	0.996
TAGGGCCACA	0.998
GGTCACACTT	0.977
TAATCCAT	0.974
CGTCTTGTAT	0.978
TAAGGACTAA	1.02
GAGGTATATG	1.02
ACGTTTAAAG	0.997

Sequence	switch fluorescence ratio
ACAGGAAAG	1.02
TTTTACATGA	0.985
AGTAGGTCT	0.947
ATTGAGTCAT	0.992
TCATGGTCCG	1.04
AGGACCGCGT	1.01
AAGTCTGTGT	0.969
CTGGGACTC	0.99
TTTCGTGTCG	1
CATCGGCTCC	1.41
GGCTGTGGGG	0.952
CAGAGGACGA	1.02
TTAGCTTACT	1.22
TCTTACATCA	1.09
GCGTTTCATA	0.97
AGCGACAAAA	1
ATACTGGACA	1.23
GTTGGAGTCT	0.981
GTTAGAGTCC	0.919
CCCTTAAAC	1
AGTGTGGAAA	1.03
CCTGTATATT	0.956
GGTCTACCCT	1.02
GCCTTTGGGA	1.03
GATTGCTACA	0.978
TTGATAGCCG	0.999

Sequence	switch fluorescence ratio
TTCATAAGAG	0.975
ATGCGGGGAC	1.04
TTTCGGTGT	0.977
AACGCCGCAA	2.12
AGTTGCGCCG	0.984
GTTGGGAAA	1.03
TTACCTTAGC	1.16
ATCATGCAGA	1.01
TCGAGCGTTT	1.03
ACGGTAAACA	1.07
TATCGCTGAT	1.01
GCGTAAACTT	1.03
TTAGTAGGCT	0.971
ATTGGACAGC	1.09
AACGCTACTA	1.55
ACTGCGATT	1.13
GGATATTCGA	1.02
CCAAGGTTTG	0.927
CTGTAGGGGT	0.988
TATTGGTA	0.953
TGGTTATCA	0.993
AAGTGGTCGC	0.972
AGTATGCGGT	0.99
TGTTGGAA	0.983
GATGTTGCGG	0.928
TTACCCGGGA	1.07

Sequence	switch fluorescence ratio
ACCTAGTATC	1.1
CGGGAGTTAT	1.04
CCATAGAAGG	2.56
AGGTGATGTA	0.989
TAAACACATC	1.02
ACACGACGGT	1.26
TCACACACGC	1.45
GTAAGAGTCG	1.03
AGCATAGGAA	1.04
TGTACTTCAA	1.01
AGGGAGTACT	1.03
CGGGGAACGT	0.969
ATTGGTCCG	0.971
CAGGGCATCA	0.952
CTTGCGACCC	1.35
TCGTTGGCTA	1
TTGGCAACGC	0.986
ATTTGTTGTT	1
ATGTGTCGAA	1.01
TCACTGCGGA	1.03
AGGTTATAAT	0.946
GACATCGTGG	0.986
TGATAAGGCG	1.05
TCTGATAGCC	1.09
GGAGTGGACC	1.02
AGCTATATAA	1

Sequence	switch fluorescence ratio
CGCCACATCC	1.11
GCAGATTGTT	1.03
GGTCTCGTCG	0.995
ATTTGATAAC	0.964
TTTCGCAGAG	4.19
CGCTATACCT	3.02
GGGCGCATTG	1.02
AGAGCATTGG	1.08
CCGCTCGGAG	1.33
GCGTGTTTCG	0.958
CATCAAAGAA	1.01
AATGGAGGTC	1.03
TCGTAATATG	1.18
ACGCACGCGT	1.12
TTCCGGGCGA	2.96
TGGTGTGCGA	0.982
GCGCTGCCA	1.05
TTTATTCTCA	0.996
TGACGTAATC	4.26
